Reference: PMC12136788
Changes are numbered by the printed parent chain. The list shows a part of the results.

T1: UNK ZnF1-6 (called full-length) (human, UniProt Q9C0B0 30-357)
T1 sequence: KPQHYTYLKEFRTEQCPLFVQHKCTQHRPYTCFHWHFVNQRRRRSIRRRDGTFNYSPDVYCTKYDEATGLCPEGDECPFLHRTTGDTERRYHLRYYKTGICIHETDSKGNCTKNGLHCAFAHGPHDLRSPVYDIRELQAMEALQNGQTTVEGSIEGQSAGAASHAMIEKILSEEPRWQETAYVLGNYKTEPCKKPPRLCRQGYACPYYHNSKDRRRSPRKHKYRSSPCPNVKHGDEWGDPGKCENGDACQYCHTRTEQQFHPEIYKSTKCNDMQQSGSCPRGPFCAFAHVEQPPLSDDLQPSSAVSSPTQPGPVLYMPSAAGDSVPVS

B1: chr11:126202095:126203417:-|three_prime_utr|ENSG00000165526|control|control|control (ssRNA)
RNA: GGGAGUUCUACAGUCCGACGAUCAAGGUAAAGCAACUCAGCUGCUACAGGGCUUUUAAUGGAGAACAAAGUCUAUUUACUGAUAGUUUGGCUGCACUGUGGAAAAGCCUGCUGGAAGUCUCCCUGCCGUGGGCUCUCAUUGCCCAACAGAGGAUUGAGCAUCA
B2: chr7:56058368:56058516:+|CDS|ENSG00000146731|unk|FALSE|unique (ssRNA)
RNA: GGGAGUUCUACAGUCCGACGAUCUACAAGAGUGCAGAAGAGAGAGAAAAACUCGUGAAAGCUGAAAGAAAAUUCAUUGAAGAUAGGGUUAAAAAAAUAAUAGAACUGAAAAGGAAAGUCUGUGGCGAUUCAGAUAAAGGAUUUCAACAGAGGAUUGAGCAUCA
B3: chr8:17969608:17969733:+|CDS|ENSG00000078674|unk|FALSE|unique (ssRNA)
RNA: GGGAGUUCUACAGUCCGACGAUCUUCUAAUUUUGGAGAUUUUUCUCAGAAUAUCUCUACACCCAGUGAACAGCAGCAACCCUUAGCCCAGAAUUCUUCAGGAAAAACAGAAUAUAUGGCUUUUCCAAAACCUUUUGAAAGCAGCAACAGAGGAUUGAGCAUCA
B4: chr5:136988535:136988636:-|CDS|ENSG00000152377|msi1|total|mutant (ssRNA)
RNA: GGGAGUUCUACAGUCCGACGAUCGGAAAGCAUCAGGCUUGGUGGCAGCUGAGAUAUGCCUUUUGUUUGGCAGGGUUUGACACCCGCAUCCUGCCCAUCUGCAAGGACUCCCUGGGCUGGAUGUUCAACAAGUUGGACAUGAACCAACAGAGGAUUGAGCAUCA
B5: chr11:4094911:4095012:+|5pUTR|ENSG00000167325|unk|total|mutant (ssRNA)
RNA: GGGAGUUCUACAGUCCGACGAUCAGCAGCGCCUGGAACCUAACCCUUCCCACUCUGUCACCUUCUCGAUCCCGCCGGCGCUUCCGAGCCGCAGUCCAGUCUUGGAUCCUUCAGAGCCUCAGCCACCCGCUGCGAUGCAUGUGACAACAGAGGAUUGAGCAUCA
B6: chr6:158785413:158785514:-|CDS|ENSG00000092820|msi1|total|mutant (ssRNA)
RNA: GGGAGUUCUACAGUCCGACGAUCGAGCUCAUCCAGGACAUCACCCAGAAACUUUUCUUCCUCCAAGUGAAGGAAGGAAUCCUCCGCGAUGAGAUCUACUGCCCCCCUGAGACUGCCGUGCUCUUGGGGUCCUACGCUGUGCAGCAACAGAGGAUUGAGCAUCA
B7: chr6:89938216:89938327:-|CDS|ENSG00000112182|unk|total|mutant (ssRNA)
RNA: GGGAGUUCUACAGUCCGACGAUCUCUUCCAAGGAACGAUUUCCAGAUGAUGAUUAAAAUGCACAAGCUAACCUCAGAACAGUCCGAGUUUAUUCAUGAUGUCCGACGGCGCAGCAAGAACCGCAUCGCGGCCCAGCGCUGCCGCAACAGAGGAUUGAGCAUCA
B8: chr10:24583932:24584033:-|3pUTR|ENSG00000107863|unk|total|mutant (ssRNA)
RNA: GGGAGUUCUACAGUCCGACGAUCAACAAAAGUGCCUCAUCAUAAAAAUACAGUUGGUUUUCCGGGUGCCAUAUUGUUAAAAUCCGAUAACUUACUUACAUUGAAUAAACGAAUGCGUUUUAUUGGUAACAGAUAUCAUUACAUCAACAGAGGAUUGAGCAUCA
B9: chr7:130192614:130192715:-|CDS|ENSG00000146842|msi1|FALSE|unique (ssRNA)
RNA: GGGAGUUCUACAGUCCGACGAUCUACAUGACCGACCUACGAACUUUGGAUACUUUUCUCAGAAGUGAAGAGGAGAAACAGCAUAGGGUUAAGCUGGGUACAUAUAUAUUUCUGUAUAUCUACUAUACAUAUUUUUGGUGUCAACAACAGAGGAUUGAGCAUCA
B10: ENSG00000198837:stop:overlap|stop_codon|ENSG00000198837|stop_codon|NA|stop_codon (ssRNA)
RNA: GGGAGUUCUACAGUCCGACGAUCAGAUGCCCACUCCCAAGGCCAUUGACUGCCGAAAAUGUUUUGGAGCACCUCCAGAAUGCUAGAGACCUUAAGCUUCCCUCUCCAGCCUAGGGUGGGGAAGUGAGGAAGAAGGGAUUCUAGCAACAGAGGAUUGAGCAUCA
B11: ENSG00000070961:be:win_1851|CDS|ENSG00000070961|bound_else_gene|NA|bound_elsewhere_windowed (ssRNA)
RNA: GGGAGUUCUACAGUCCGACGAUCUAAUGGUGAGGCAAAAGUAUUCAGACCAAGGGACCGUGAUGAUAUUGUAAAAACUGUGAUUGAACCGAUGGCAUCAGAAGGCUUGAGAACCAUAUGUCUUGCAUUCAGAGAUUUUCCAGCCAACAGAGGAUUGAGCAUCA
B12: chr19:17262551:17262990:-|CDS|ENSG00000130307|control|control|control (ssRNA)
RNA: GGGAGUUCUACAGUCCGACGAUCUGCCAGCGAGAGGCAGCUCGCCUGGCCGAGAGGAAUGCCUGGCUCCGGCUGGCCCUGAGUAGCCGAGAGGAUGAGCUGGUCCGCACGCAGGCCUCCCUGGAGGCCAUCCGAGCUGAGAAGCAACAGAGGAUUGAGCAUCA
B13: chr8:17969608:17969733:+|CDS|ENSG00000078674|unk|total|mutant (ssRNA)
RNA: B3 RNA with U83C, A84C
B14: chr12:67313014:67313056:+|3pUTR|ENSG00000111530|msi1_unk|FALSE|overlapping (ssRNA)
RNA: GGGAGUUCUACAGUCCGACGAUCUUUUUGUAGCAUUUAUUUCAGAAAUGUGUAUUUCCAUAAUCCAGAGGUUGUAAAACCACUAGUGUUUUAGUGGUUACAGCAACAUUUGAAAUGGAAACUAAAAGUUAGGAUUUUAUGGAGCAACAGAGGAUUGAGCAUCA

The binders below were run against T1, UNK ZnF1-6 (called full-length) (assay: nsRBNS (natural sequence RNA bind-n-seq); RBNS binding buffer (assumed for nsRBNS): 25 mM Tris pH 7.5, 150 mM KCl, 3 mM MgCl2, 0.01% Triton X-100, 500 ug/ml BSA, 20 U/ml SUPERase-In, 4 C; UNK is unkempt and MSI1 is Musashi-1; names of the RNAs are library labels; protein concentration not given here; high values mean tight binding).

Row | Binder | binding signal [enrichment R]
1 | B1 | 0.627
2 | B2 | 1.17
3 | B3 | 0.522
4 | B4 | 0.913
5 | B5 | 0.809
6 | B6 | 0.554
7 | B7 | 0.383
8 | B8 | 0.341
9 | B9 | 0.506
10 | B10 | 0.858
11 | B11 | 0.481
12 | B12 | 0.907
13 | B13 | 0.457
14 | B14 | 0.85
